Laboratory results as given in PubChem BioAssay AID2147 (National Center for Advancing Translational Sciences (NCATS), 2009).
About 3,600 (1.6%) of roughly 230,000 compounds were called active. The shares of active, inactive and inconclusive entries below differ from those in the screen. The call rests on the fitted dose curve; in most records, active means well fitted inhibition curve with a large enough effect (not every such curve was filed as active); inconclusive means small, poorly fitted or top-dose-only effect, or another doubt; inactive means no such curve, though single readings can be large or run the other way. Potencies of inconclusive entries are doubtful fits and often do not repeat.

The compounds below were run against Lysine-specific demethylase 4E (Homo sapiens) (UniProt B2RXH2) (assay: qHTS Assay for Inhibitors of Human Jumonji Domain Containing 2E (JMJD2E)). Conditions: JMJD2E catalytic domain, FDH-coupled NADH fluorescence (FDH is formaldehyde dehydrogenase); series mostly up to 57.1 µM; activity change, negative = inhibition: at the top concentration.
Sequence of UniProt B2RXH2 (B2RXH2 whole entry, looked up, the tested form may be a part): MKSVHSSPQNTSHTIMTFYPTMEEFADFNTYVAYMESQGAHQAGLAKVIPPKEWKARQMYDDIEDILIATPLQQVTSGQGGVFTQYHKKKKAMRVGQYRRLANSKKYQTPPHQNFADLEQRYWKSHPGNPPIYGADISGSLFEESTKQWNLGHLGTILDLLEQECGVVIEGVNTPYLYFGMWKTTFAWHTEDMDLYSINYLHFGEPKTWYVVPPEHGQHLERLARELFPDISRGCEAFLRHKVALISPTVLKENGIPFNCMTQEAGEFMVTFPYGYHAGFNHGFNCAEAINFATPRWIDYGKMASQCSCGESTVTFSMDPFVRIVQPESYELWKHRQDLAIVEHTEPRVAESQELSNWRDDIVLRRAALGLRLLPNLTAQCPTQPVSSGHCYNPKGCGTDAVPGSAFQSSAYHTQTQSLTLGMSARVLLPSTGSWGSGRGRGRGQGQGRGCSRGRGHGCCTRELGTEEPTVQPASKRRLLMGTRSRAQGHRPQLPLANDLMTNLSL
Further: nearly all actives have a fitted effect of over 50% in size.
Potency means the concentration at half of the fitted maximal effect; tags describe the fitted curve by direction and shape.
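Wherever activity change, negative = inhibition is given: 0% = wells with enzyme and -100% = buffer wells without enzyme.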

Compound	Potency	activity change, negative = inhibition
COCCn1c(N/N=C(C)/C=C/c2ccccc2)nc2c1c(=O)[nH]c(=O)n2C	inconclusive: 35.5 µM [inhibitor, single point]	–
O=C(CCS(=O)(=O)c1ccccc1)Nc1nc2c(s1)COc1ccccc1-2	inconclusive: 35.5 µM [inhibitor, single point]	–
Cc1cccc(OCC(=O)Nc2ccc(S(=O)(=O)Nc3ccccn3)cc2)c1	inconclusive: 35.5 µM [inhibitor, single point]	–
CCSc1ccc(-c2nn(-c3ccccc3)cc2/C=C(/C#N)C(=O)NCCCOC)cc1	inconclusive: 25.1 µM [inhibitor, partial curve]	–
COCCCNC(=O)C1CCN(c2ncccn2)CC1	inconclusive: 25.1 µM [inhibitor, single point]	–
COc1ccc(/C=C(\NC(=O)c2ccccc2)C(=O)N/N=C/c2sccc2C)cc1	inconclusive: 22.4 µM [inhibitor, single point]	–
CCOC(=O)c1c(NC(=O)CN2CCOCC2)sc2c1CC(C)(C)OC2	inconclusive: 22.4 µM [inhibitor, single point]	–
CN1CCN(C(=S)NC(=O)c2ccc(Br)cc2)CC1	–	inactive: 3.43%
CC(OCC(O)CN(C)CCOc1ccccc1)c1ccc(Cl)cc1 (stereo not drawn)	inconclusive: 22.4 µM [inhibitor, single point]	–
O=C(Nc1nc2c(s1)CCCC2)c1ccc(S(=O)(=O)N2CCCc3ccccc32)cc1	inconclusive: 39.8 µM [inhibitor, single point]	–
Cc1ccc(C(=O)Nc2ncc(Cc3ccc(SC(F)F)cc3)s2)cc1	inconclusive: 39.8 µM [inhibitor, single point]	–
COc1ccc(NC(=O)CSc2nc(N)c(-c3ccccc3)c(=O)[nH]2)cc1	inconclusive: 39.8 µM [inhibitor, single point]	–
COc1ccc(OC)c(-c2csc(NC(=O)Cn3[nH]c(=O)c4ccccc4c3=O)n2)c1	inconclusive: 39.8 µM [inhibitor, single point]	–
O=C(CN(c1ccc(Cl)c(C(F)(F)F)c1)S(=O)(=O)c1ccccc1)N/N=C/c1cccc2c1OCCO2	inconclusive: 25.1 µM [inhibitor, partial curve]	–
CCOC(=O)COc1cccc2c(=O)n(CC(=O)N3CCN(C(=O)OCC)CC3)ccc12	inconclusive: 35.5 µM [inhibitor, single point]	–
Cc1ccc2cc(CN(Cc3nnnn3C3CCCCC3)CC3CCCO3)c(=O)[nH]c2c1 (stereo not drawn)	–	inactive: -6.57%
Cc1cnc(CNc2nc(-c3ccc(C(=O)N(C)C)cc3)nc3ccccc23)cn1	inconclusive: 31.6 µM [inhibitor, single point]	–
Cc1ccccc1/C=N/NC(=O)c1sccc1C	inconclusive: 39.8 µM [inhibitor, single point]	–
CC(N=c1ccccn1C(=O)Nc1ccc(Cl)cc1)c1ccco1 (stereo not drawn)	inconclusive: 35.5 µM [inhibitor, partial curve]	–
CN(C)/C=N/NC(=O)c1ccccc1	inconclusive: 39.8 µM [inhibitor, single point]	–
O=C(Nc1ccccc1)c1ccc(-c2ccc(Br)cc2)o1	inconclusive: 39.8 µM [inhibitor, single point]	–
Cc1cc(C)c(S(=O)(=O)Nc2cc(SCC(=O)O)c(O)c3ccccc23)cc1C	active: 28.2 µM	–

Compound	Potency	activity change, negative = inhibition
CC(C(=O)NC1CCCC1)N(Cc1ccco1)C(=O)c1snc(C(=O)NC2CCCC2)c1N (stereo not drawn)	inconclusive: 25.1 µM [inhibitor, partial curve]	–
Cc1cc(C)nc(NS(=O)(=O)c2ccc(NC(=O)CN3C(=O)c4ccccc4C3=O)cc2)n1	–	inactive: 4.58%
COc1ccc(N2CCN(C(c3cccs3)C(C)NS(=O)(=O)c3ccccc3)CC2)cc1 (stereo not drawn)	–	inactive: -8.97%
CCCOC(=O)Nc1cccc(C(C)=O)c1	–	inactive: -8.84%
CC(=O)Nc1ccc2nc(NC(=O)COc3ccccc3Cl)sc2c1	inconclusive: 28.2 µM [inhibitor, single point]	–
Cc1cc(C)n2c(SCC(=O)Nc3ccccc3)nnc2n1	–	inactive: 5.44%
COc1ccc(Cl)cc1NC(=O)CN1CCCCCC1	–	inactive: -1.34%
O=C(COC(=O)/C=C/c1cccs1)Nc1ccccc1Cl	inconclusive: 39.8 µM [inhibitor, single point]	–
Cc1cc(C(=O)CSc2nnnn2-c2ccccc2)c(C)n1CCc1ccccc1	–	inactive: 4.21%
Cc1cc(C)n(-c2ccc(C(=O)Nc3nc4ccccc4s3)cc2)n1	inconclusive: 31.6 µM [inhibitor, partial curve]	–
O=C1/C(=C/c2cccnc2)Oc2cc(OS(=O)(=O)c3ccc(Cl)cc3)ccc21	–	inactive: -1.83%
C/C(=N\NC(=O)C1CC1)c1ccc(N2CCOCC2)cc1	inconclusive: 35.5 µM [inhibitor, single point]	–
COc1ccc(/C=C/c2ccccc2)cc1[C@H]1[C@H]2C=CC[C@@H](C)[C@@H]2C(=O)N1Cc1ccccc1	inconclusive: 31.6 µM [inhibitor, partial curve]	–
CSC1=C(C#N)C(c2cccs2)CC(=O)N1C (stereo not drawn)	inconclusive: 39.8 µM [inhibitor, single point]	–
Cn1cccc1Cc1nnc(SCC(=O)Nc2ccc3c(c2)OCCO3)n1CCc1ccccc1	–	inactive: -15.6%
COc1ccc2[nH]c3c(N4CCC(O)(c5cccc(C(F)(F)F)c5)CC4)ncnc3c2c1	inconclusive: 28.2 µM [inhibitor, partial curve]	–
CCOC(=O)c1sc2nc(N3CCCC3)c3c(c2c1N)CC(C)(C)OC3	inconclusive: 0.708 µM [inhibitor, single point]	–
CC(=O)Nc1ccc2nc(-c3ccccn3)[nH]c2c1	inconclusive: 28.2 µM [inhibitor, partial curve]	–
C=CCn1c(SCC(=O)NC(=O)NCc2ccco2)nc2sc(CC)cc2c1=O	–	inactive: -4.6%
Cc1cccc(CNc2ncc(-c3cccc([N+](=O)[O-])c3)n2C)c1	inconclusive: 22.4 µM [inhibitor, single point]	–
CCN1CCN(Cc2ccc(NC(=O)c3cc(NC(=O)c4nccnc4N)cc(OC)c3)cc2C(F)(F)F)CC1	–	inactive: -23%
